Experimental data: the supplement of paper PMC9174493
Some of the results follow. Single values of this set are uncertain. Values with irradiation are relative to irradiated vehicle.

Legend:
A549-Dual [1] = assay: NF-kB reporter (SEAP) activity, viability-corrected, relative to vehicle (fold change vs vehicle); higher = more activation of STING-IRF / NF-kB immune response reporter
A549-Dual [2] = assay: ISRE reporter (Lucia luciferase) activity, viability-corrected, relative to vehicle (fold change vs vehicle); higher = more activation of STING-IRF / NF-kB immune response reporter
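Wherever NF-kB reporter (SEAP) activity, viability-corrected, relative to vehicle is given: viability correction based on the alamar blue assay, with concentrations leaving 10% survival or less dropped.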

Row | Structure (SMILES) | NF-kB reporter (A549-Dual [1]; 0.1 µM, irradiation: 8 Gy/4 fr) | NF-kB reporter (A549-Dual [1]; 0.1 µM, irradiation: none) | NF-kB reporter (A549-Dual [1]; 0.3 µM, irradiation: 8 Gy/4 fr) | NF-kB reporter (A549-Dual [1]; 0.3 µM, irradiation: none) | NF-kB reporter (A549-Dual [1]; 1 µM, irradiation: 8 Gy/4 fr) | NF-kB reporter (A549-Dual [1]; 1 µM, irradiation: none) | NF-kB reporter (A549-Dual [1]; 3 µM, irradiation: 8 Gy/4 fr) | NF-kB reporter (A549-Dual [1]; 3 µM, irradiation: none) | NF-kB reporter (A549-Dual [1]; 10 µM, irradiation: 8 Gy/4 fr) | NF-kB reporter (A549-Dual [1]; 10 µM, irradiation: none) | ISRE reporter (A549-Dual [2]; 0.1 µM, irradiation: 8 Gy/4 fr) | ISRE reporter (A549-Dual [2]; 0.1 µM, irradiation: none) | ISRE reporter (A549-Dual [2]; 0.3 µM, irradiation: 8 Gy/4 fr) | ISRE reporter (A549-Dual [2]; 0.3 µM, irradiation: none) | ISRE reporter (A549-Dual [2]; 1 µM, irradiation: 8 Gy/4 fr) | ISRE reporter (A549-Dual [2]; 1 µM, irradiation: none) | ISRE reporter (A549-Dual [2]; 3 µM, irradiation: 8 Gy/4 fr) | ISRE reporter (A549-Dual [2]; 3 µM, irradiation: none) | ISRE reporter (A549-Dual [2]; 10 µM, irradiation: 8 Gy/4 fr) | ISRE reporter (A549-Dual [2]; 10 µM, irradiation: none)
1 | CCOC(=O)c1ccc(OC(=O)CCCCCNC(=N)N)cc1.CS(=O)(=O)O [Gabexate Mesylate] | 0.948 | 0.99 | 1.07 | 0.925 | 0.912 | 0.877 | 1.02 | 0.786 | 1.02 | 0.992 | 1.01 | 0.819 | 1.18 | 1.01 | 0.98 | 0.929 | 1.06 | 0.773 | 1.04 | 0.92
2 | O=S(=O)([O-])CCS.[Na+] [Mesna] | 0.971 | 1.01 | 0.909 | 0.925 | 0.838 | 0.875 | 0.93 | 0.802 | 1.01 | 0.874 | 1.01 | 0.932 | 0.98 | 0.92 | 0.864 | 0.885 | 0.932 | 0.742 | 1.01 | 0.904
3 | Cn1cnc2c(F)c(Nc3ccc(Br)cc3F)c(C(=O)NOCCO)cc21 | 1.03 | 1.7 | 0.946 | 1.34 | 0.902 | 1.48 | 1.24 | 1.5 | 1.2 | 1.74 | 0.829 | 1.36 | 0.678 | 0.86 | 0.548 | 0.762 | 0.366 | 0.414 | 0.285 | 0.517
4 | CC(C)(C)c1nc(-c2cccc(NS(=O)(=O)c3c(F)cccc3F)c2F)c(-c2ccnc(N)n2)s1 | 0.621 | 0.788 | 0.499 | 0.726 | 0.548 | 1.23 | 0.642 | 1.2 | 0.57 | 1.06 | 0.429 | 0.95 | 0.169 | 0.456 | 0.177 | 0.432 | 0.214 | 0.389 | 0.195 | 0.421
5 | Cl.c1ccc(CN(CC2=NCCN2)c2ccccc2)cc1 [Antazoline HCl] | 0.993 | 0.816 | 0.9 | 0.758 | 0.924 | 0.898 | 1.2 | 0.939 | 1.02 | 0.961 | 0.798 | 0.769 | 0.827 | 0.62 | 0.796 | 0.777 | 0.974 | 0.912 | 1.07 | 1.14
6 | COc1ccc2c(c1)c(CC(=O)O)c(C)n2C(=O)c1ccc(Cl)cc1 [Indomethacin] | 0.939 | 1.45 | 0.929 | 1.26 | 1.45 | 1 | 1.63 | 0.982 | 1.15 | 0.834 | 1.04 | 1.03 | 0.908 | 0.967 | 1.02 | 1.07 | 1.08 | 0.976 | 1.23 | 0.901
7 | CC(CCC(=O)[O-])C1CCC2C3C(O)CC4CC(O)CCC4(C)C3CC(O)C12C.[Na+] (stereo not given) [Sodium cholate] | 0.795 | 0.945 | 0.888 | 0.909 | 0.971 | 0.749 | 0.903 | 0.723 | 0.816 | 0.721 | 0.813 | 0.934 | 0.746 | 1.05 | 0.708 | 0.871 | 0.815 | 0.867 | 0.903 | 0.636
8 | C#Cc1cccc(Nc2ncnc3cc4c(cc23)OCCOCCOCCO4)c1 [Icotinib] | 1.3 | 1.27 | 1.2 | 1.61 | 1.09 | 1.9 | 1.27 | 1.61 | 1.19 | 1.18 | 1.13 | 1.22 | 1.18 | 1.29 | 1.19 | 1.14 | 1.12 | 0.851 | 1.12 | 0.94
9 | CC12C=CC(=O)C=C1CCC1C2C(=O)CC2(C)C1CCC2(O)C(=O)CO (stereo not given) [Prednisone] | 0.924 | 1.15 | 1.1 | 1.1 | 1.06 | 1.06 | 1.3 | 1.02 | 0.663 | 0.984 | 0.877 | 0.963 | 0.86 | 0.957 | 0.82 | 0.846 | 0.786 | 0.708 | 0.483 | 0.659
10 | NC(=O)C[C@H](N)C(=O)O [L-Asparagine] | 1.58 | 0.946 | 1.3 | 1.47 | 1.09 | 1.12 | 1 | 0.917 | 1.31 | 1.13 | 1.01 | 1.01 | 0.964 | 1.02 | 1.15 | 0.769 | 0.683 | 1.02 | 0.989 | 0.817
11 | S=P(N1CC1)(N1CC1)N1CC1 [Thiotepa] | 0.814 | 1.18 | 0.881 | 1.17 | 0.729 | 0.879 | 0.774 | 0.957 | 0.826 | 1.03 | 0.829 | 1.07 | 1.06 | 1.24 | 0.727 | 1.13 | 0.618 | 1.8 | 0.642 | 1.94
12 | C=CC1CN2CCC1CC2C(O)c1ccnc2ccc(OC)cc12.Cl.O.O (stereo not given) [Quinine HCl Dihydrate] | 0.854 | 1.19 | 0.764 | 1.25 | 0.928 | 0.997 | 1.32 | 1.01 | 0.936 | 0.888 | 0.955 | 0.963 | 0.714 | 0.865 | 0.7 | 0.941 | 0.977 | 1.09 | 1.29 | 1.33
13 | COc1ccc(C2CNC(=O)C2)cc1OC1CCCC1 (stereo not drawn) [S- (+)-Rolipram] | 1.12 | 1.01 | 1.02 | 0.945 | 0.93 | 0.87 | 0.695 | 0.943 | 0.716 | 0.403 | 0.958 | 0.988 | 0.845 | 0.712 | 0.949 | 0.802 | 0.64 | 0.781 | 0.766 | 0.834
14 | CC(Nc1ncnc2[nH]cnc12)c1cc2cccc(Cl)c2c(=O)n1-c1ccccc1 (stereo not given) [Duvelisib (IPI-145, INK1197)] | 0.948 | 1.33 | 0.918 | 0.948 | 1.02 | 0.956 | 0.962 | 0.898 | 0.899 | 0.86 | 0.989 | 1.34 | 1.11 | 0.93 | 1.09 | 1.03 | 1.16 | 0.902 | 1.12 | 1.3
15 | COc1nc(N)nc2c1ncn2C1OC(CO)C(O)C1O (stereo not given) [Nelarabine] | 0.877 | 1.09 | 0.897 | 1.13 | 0.739 | 1.07 | 0.932 | 0.776 | 0.896 | 1.01 | 0.858 | 0.9 | 0.984 | 1.03 | 0.749 | 0.926 | 0.878 | 0.72 | 0.899 | 0.761
16 | COc1cc2ncnc(Nc3ccc(F)c(Cl)c3)c2cc1OCCCN1CCOCC1 [Gefitinib (ZD1839)] | 0.893 | 1.09 | 0.968 | 1.16 | 0.845 | 1.26 | 0.912 | 0.809 | 1.05 | 0.916 | 0.862 | 0.852 | 0.9 | 1.1 | 0.826 | 0.972 | 0.891 | 0.77 | 0.869 | 1.17
17 | CCCCOc1ccc(C(=O)CCN2CCCCC2)cc1.Cl [Dyclonine HCl] | 0.915 | 1.01 | 1.05 | 1.38 | 1.35 | 0.928 | 1.06 | 0.994 | 1.19 | 0.802 | 1.07 | 0.744 | 0.87 | 0.909 | 0.903 | 0.848 | 0.686 | 1.05 | 0.81 | 0.783
18 | Cc1coc2c1C(=O)C(=O)c1c-2ccc2c1CCCC2(C)C [Tanshinone IIA] | 0.883 | 1.04 | 0.917 | 1.17 | 1.09 | 0.887 | 1.35 | 0.982 | 0.541 | 0.858 | 0.9 | 0.859 | 0.745 | 0.912 | 0.656 | 0.6 | 0.715 | 0.891 | 0.158 | 0.476
19 | COc1ccc2c(c1)nc(S(=O)Cc1ncc(C)c(OC)c1C)[n]2[Na] (stereo not given) [Omeprazole Sodium] | 0.733 | 0.905 | 0.8 | 0.801 | 0.831 | 0.689 | 1.2 | 0.675 | 0.892 | 0.673 | 0.714 | 0.849 | 0.716 | 0.667 | 0.671 | 0.625 | 0.857 | 0.726 | 0.88 | 0.564
20 | COc1ccc2c(c1)nc(S(=O)Cc1ncc(C)c(OC)c1C)[n]2[Na] (stereo not given) [Esomeprazole sodium] | 0.964 | 0.985 | 0.953 | 0.972 | 0.978 | 0.964 | 0.875 | 1.02 | 1.07 | 0.973 | 1.08 | 0.906 | 0.899 | 0.869 | 0.993 | 0.856 | 0.783 | 0.743 | 1.05 | 0.828
21 | CC1(C(=O)O)CCC2(C)CCC3(C)C(=CC(=O)C4C5(C)CCC(OC6OC(C(=O)O)C(O)C(O)C6OC6OC(C(=O)O)C(O)C(O)C6O)C(C)(C)C5CCC43C)C2C1.N (stereo not given) [Ammonium Glycyrrhizinate] | 0.735 | 1.05 | 0.785 | 0.985 | 1.07 | 0.977 | 1.17 | 1.06 | 0.812 | 0.833 | 0.814 | 1.03 | 0.703 | 0.843 | 0.772 | 0.886 | 0.96 | 1.07 | 0.734 | 0.702
22 | O=C(Oc1ccccc1C(=O)O)c1ccccc1O [Sasapyrine] | 1.05 | 1.19 | 1.32 | 1.07 | 1.36 | 1.15 | 1.38 | 1.12 | 1.22 | 0.887 | 1.08 | 1.17 | 1.2 | 1.06 | 1.17 | 0.97 | 1.13 | 1.17 | 1.1 | 0.937
23 | CCc1nc(N)nc(N)c1-c1ccc(Cl)cc1 [Pyrimethamine] | 1.25 | 1.65 | 1.1 | 1.68 | 1.35 | 1.32 | 1.71 | 1.59 | 1.01 | 1.8 | 1.13 | 1.57 | 1.12 | 1.44 | 1.15 | 1.13 | 0.986 | 0.807 | 0.134 | 0.828
24 | O=C(O)CCc1nc(-c2ccccc2)c(-c2ccccc2)o1 [Oxaprozin] | 1.04 | 1.14 | 1.28 | 0.954 | 1.02 | 1.14 | 1.11 | 1.02 | 0.988 | 1.15 | 1.01 | 0.823 | 0.965 | 0.788 | 0.771 | 0.727 | 0.806 | 1.01 | 0.921 | 0.886
25 | Cl.Cl.Cl.Cl.Cl.Cl.Cl.Cl.c1cc(CN2CCCNCCNCCCNCC2)ccc1CN1CCCNCCNCCCNCC1 [Plerixafor 8HCl (AMD3100 8HCl)] | 1.01 | 1.07 | 0.801 | 1.12 | 0.894 | 1.44 | 0.764 | 1.14 | 0.746 | 0.847 | 1.07 | 1.36 | 0.92 | 1.1 | 0.947 | 1.26 | 0.97 | 0.958 | 0.856 | 0.851
